In the assay the target is T1, LunX protein on the surface of lung cancer NCI-H292 cells (human, UniProt Q9NP55 20-256).
T1 construct: whole, on cells; Endogenous protein on live NCI-H292 cells; also called lung-specific X protein
T1 sequence (looked up): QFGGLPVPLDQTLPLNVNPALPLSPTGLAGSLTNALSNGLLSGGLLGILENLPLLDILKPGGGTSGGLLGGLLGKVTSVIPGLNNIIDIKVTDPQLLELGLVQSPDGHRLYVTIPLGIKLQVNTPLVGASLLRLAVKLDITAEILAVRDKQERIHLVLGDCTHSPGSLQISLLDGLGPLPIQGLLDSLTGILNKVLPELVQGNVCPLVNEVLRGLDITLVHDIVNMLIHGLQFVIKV
Put plainly: flow cytometry on live NCI-H292 cells. How it is done: Fresh lung cancer NCI-H292 cells (purchased from the Shanghai Cell Bank of the Chinese Academy of Sciences) are divided into two groups; one group is labeled with chimeric antibody and the other group is labeled with human IgG (control). Two groups are further labeled with FITC-labeled mouse anti-human IgG antibody against human IgG. All the labeling steps are performed at 4° C. for 30 minutes. The cells are collected by centrifugation at 350 g for 5 minutes, and washed 3 times with 1×PBS. It can be seen that the chimeric antibody ChAb1 is capable of binding to the LunX protein on the surface of live lung cancer cells.

Experimental findings from patent US20190322758A1 (IMMUNOPHARMACEUTIC INSTITUTE OF HEFEI RUIDA, published 2019) are described below.

Substitutions are numbered along the chain they refer to.

B1: chimeric antibody ChAb1 (Fc fusion)
chain: DIVLTQSPASLAVSLGQRATISCRASKSVSTAGYSYMHWYQQKPGQTPKLLIYLASKLESGVPARFSGSGSGTDFTLNIHPVEEEDAATYYCQHSRELTFGSGTKLEIKRAGGGGSGGGGSGGGGSQVQLQQSGPELVKPGASVKISCKTSGYAFSRSWMSWVKQRPGQGLEWIGRIYPGDGDTNYNGKFKGKATLTADKSSSTAYMQLSSLTSVDSAVYFCARSGGIQGYGMDYWGQGTSVTVSS[letters of human IgG1 Fc not shown]
notes: also called scFv-Fc of Ab1
With B1, the binding result is “binds”.

B2: chimeric antibody ChAb2 (Fc fusion)
chain: B1 chain with L4V, S10A, A32S, S35T, T47P, E97D, N185K, N187S, K191E
notes: also called scFv-Fc of Ab2
As to B2, the binding result is “binds”.
